Among the data in patent US20170037129A1 are EC50 values, retold here.

Assay [1] deals with endogenous human CD147 expressed on human cancer cells (human) (UniProt P35613). In words: flow cytometry on K562 cells. On the technique in general: Flow cytometry measures light scatter and fluorescence of single cells or particles in a stream.
For assay [2] the target is unchanged. The assay is described as follows: flow cytometry on PC-3 cells.
For assay [3] the target is unchanged. The assay is described as follows: flow cytometry on A549 cells.

B1: C4sh1A5 (antibody, V domains shown)
VH: [about 100 residues skipped]DQDFDYWGQGTLVTVSS
VL: DVVMTQSPSSLSASVGDRVTITCRASQGIATNLAWFQQKPGKAPKSLIYAASSLQSGVPSKFSGSGSGTAFTLTISSLQAEDFGTYYCQQYNNYPYTFGQGTKVEIK
With B1, the EC50 in assay [1] turned out to be 5.74 nM; in assay [2], 5.2 nM; in assay [3], 8.73 nM.

As a reminder, the EC50 is the concentration that produces a half-maximal response.
